Reference: ChEMBL document CHEMBL5606460, “ASAP - DENV-2 NS2B-NS3 protease fluorescence single point” (2024)
Screen size: about 2,000 compounds; about 110 (5.5%) showed an effect of 50% or more. The list shows a part of the results.

Target: Genome polyprotein (dengue virus type 2) (UniProt P29990)
[1] = Thailand/16681/1984, Concentration 25.0 uM, Number of replicates 1.0

SMILES: c1ccc2c([C@H]3CCN(Cc4ccncc4)C3)c[nH]c2c1
- inhibition (Thailand/16681/1984, Concentration 49.5 uM, Number of replicates 2.0, Standard deviation 0.014090386880192304 %): -0.355%
- inhibition (Thailand/16681/1984, Concentration 99.01 uM, Number of replicates 2.0, Standard deviation 1.2914376010247381 %): 0.401%
- inhibition (Thailand/16681/1984, Concentration 198.0 uM, Number of replicates 2.0, Standard deviation 0.37068541016337603 %): 3.28%

SMILES: NCc1cccc(NC(=O)[C@@H](CCC(N)=O)NC(=O)OCc2ccccc2)c1
- inhibition (Thailand/16681/1984, Concentration 49.5 uM, Number of replicates 2.0, Standard deviation 0.6750820884014238 %): -3.1%
- inhibition (Thailand/16681/1984, Concentration 99.01 uM, Number of replicates 2.0, Standard deviation 2.465072002477128 %): -1.7%
- inhibition (Thailand/16681/1984, Concentration 198.0 uM, Number of replicates 2.0, Standard deviation 2.5897319885400165 %): -0.981%

SMILES: Nc1ccc(N2CCN(c3cc(C(F)(F)F)nc(-c4ccccc4)n3)CC2)cn1
- inhibition (Thailand/16681/1984, Concentration 49.5 uM, Number of replicates 2.0, Standard deviation 0.9119763740644238 %): 3.06%
- inhibition (Thailand/16681/1984, Concentration 99.01 uM, Number of replicates 2.0, Standard deviation 1.3799571096656225 %): 4.1%
- inhibition (Thailand/16681/1984, Concentration 198.0 uM, Number of replicates 2.0, Standard deviation 0.8954529549868189 %): 4.98%

SMILES: Cc1c(C(=O)NCc2nc(CN(C)C)cs2)cc(C2CC2)n1C
- inhibition (Thailand/16681/1984, Concentration 49.5 uM, Number of replicates 2.0, Standard deviation 0.5579625712980171 %): -6.26%
- inhibition (Thailand/16681/1984, Concentration 99.01 uM, Number of replicates 2.0, Standard deviation 0.25422877869334853 %): -6.67%
- inhibition (Thailand/16681/1984, Concentration 198.0 uM, Number of replicates 2.0, Standard deviation 0.6420178857446275 %): -7.02%

SMILES: CCn1cc(S(=O)(=O)Nc2ccc(Cl)cc2C(=O)NC)cn1
- inhibition (Thailand/16681/1984, Concentration 49.5 uM, Number of replicates 2.0, Standard deviation 0.5029835247021022 %): -6.21%

SMILES: C[C@H](NC(=O)C1CCN(c2ccc(C=O)cc2)CC1)c1c(F)cccc1F
- inhibition [1]: 11.9%

SMILES: FC(F)c1ncc(CNCc2nnc3ccccn23)s1
- inhibition (Thailand/16681/1984, Concentration 49.5 uM, Number of replicates 2.0, Standard deviation 0.9081037530358488 %): -4.92%
- inhibition (Thailand/16681/1984, Concentration 99.01 uM, Number of replicates 2.0, Standard deviation 0.3468554134279225 %): -4.95%
- inhibition (Thailand/16681/1984, Concentration 198.0 uM, Number of replicates 2.0, Standard deviation 1.7848092840428398 %): -3.55%

SMILES: CCCCCC(=O)N[C@H](C(=O)Nc1ccc2[nH]ncc2c1)c1ccc(OCc2ccccc2)cc1
- inhibition (Thailand/16681/1984, Concentration 49.5 uM, Number of replicates 2.0, Standard deviation 1.987384065312995 %): 0.193%
- inhibition (Thailand/16681/1984, Concentration 99.01 uM, Number of replicates 2.0, Standard deviation 0.5919966150858976 %): -0.962%
- inhibition (Thailand/16681/1984, Concentration 198.0 uM, Number of replicates 2.0, Standard deviation 0.13907515919188387 %): 5.05%

SMILES: CC(F)(F)c1cc(C(=O)N2CC(NC(=O)c3ccc4[nH]ncc4c3Cl)C2)[nH]n1
- inhibition (Thailand/16681/1984, Concentration 49.5 uM, Number of replicates 2.0, Standard deviation 1.1119212446710598 %): -0.541%
- inhibition (Thailand/16681/1984, Concentration 99.01 uM, Number of replicates 2.0, Standard deviation 1.228392627538066 %): 0.751%
- inhibition (Thailand/16681/1984, Concentration 198.0 uM, Number of replicates 2.0, Standard deviation 0.6727041632084392 %): 3.47%

SMILES: O[C@]1(C(F)(F)F)CC[C@H](CNCc2nnc3ccccn23)CC1
- inhibition (Thailand/16681/1984, Concentration 49.5 uM, Number of replicates 2.0, Standard deviation 2.244095461971029 %): 4.51%
- inhibition (Thailand/16681/1984, Concentration 99.01 uM, Number of replicates 2.0, Standard deviation 1.4092400656614155 %): 4.61%
- inhibition (Thailand/16681/1984, Concentration 198.0 uM, Number of replicates 2.0, Standard deviation 2.783814769891106 %): 1.75%

SMILES: CC(C)(CO)NC(=O)c1cc(Cl)cc(NC(=O)[C@@H](N)c2cccc(Cl)c2)c1
- inhibition (Thailand/16681/1984, Concentration 49.5 uM, Number of replicates 2.0, Standard deviation 0.0079840461008127 %): 0.838%
- inhibition (Thailand/16681/1984, Concentration 99.01 uM, Number of replicates 2.0, Standard deviation 0.8566436311158055 %): 1.65%
- inhibition (Thailand/16681/1984, Concentration 198.0 uM, Number of replicates 2.0, Standard deviation 1.319249969182289 %): 3.6%

SMILES: O=Cc1ccc(N2CCC(C(=O)NCc3ccc4c(c3)OCO4)CC2)cc1
- inhibition [1]: 10.6%

SMILES: Cc1cc(CO)c2cccc(Cc3cccc(NC(=O)[C@@H](N)c4ccsc4)c3)c2n1
- inhibition (Thailand/16681/1984, Concentration 49.95 uM, Number of replicates 2.0, Standard deviation 0.6161503417647632 %): 2.81%
- inhibition (Thailand/16681/1984, Concentration 99.9 uM, Number of replicates 2.0, Standard deviation 3.7023066252668286 %): 10.5%

SMILES: N#Cc1ccc(NC(=O)C2CCN(c3ccc(C=O)cc3)CC2)c(I)c1
- inhibition [1]: 13.4%

SMILES: Cc1cc(CO)c2cccc(Cc3ccccc3C(=O)NCCc3ncc[nH]3)c2n1
- inhibition (Thailand/16681/1984, Concentration 49.95 uM, Number of replicates 2.0, Standard deviation 0.3032711887954129 %): 14.1%
- inhibition (Thailand/16681/1984, Concentration 99.9 uM, Number of replicates 2.0, Standard deviation 0.18110062477906652 %): 34.2%

SMILES: Cc1cc(CO)c2cccc(Cc3ccccc3C(=O)N[C@@H](CCC(N)=O)C(=O)O)c2n1
- inhibition (Thailand/16681/1984, Concentration 49.95 uM, Number of replicates 2.0, Standard deviation 0.9816783263695582 %): 12.6%
- inhibition (Thailand/16681/1984, Concentration 99.9 uM, Number of replicates 2.0, Standard deviation 0.9155644195718532 %): 39.4%

SMILES: CCn1nnc(CNC(=O)[C@]2(c3ccc(F)cc3)CCCNC2)n1
- inhibition (Thailand/16681/1984, Concentration 49.5 uM, Number of replicates 2.0, Standard deviation 1.1683531247452816 %): -5.23%
- inhibition (Thailand/16681/1984, Concentration 99.01 uM, Number of replicates 2.0, Standard deviation 1.0798737399041796 %): -5.26%
- inhibition (Thailand/16681/1984, Concentration 198.0 uM, Number of replicates 2.0, Standard deviation 1.100128166599363 %): -5.3%

SMILES: COc1cc(Cc2c(-c3ccc(F)cc3)noc2C)nc(N2CCNCC2)n1
- inhibition (Thailand/16681/1984, Concentration 49.5 uM, Number of replicates 2.0, Standard deviation 0.4285559202279565 %): -0.048%
- inhibition (Thailand/16681/1984, Concentration 99.01 uM, Number of replicates 2.0, Standard deviation 0.4007548684992308 %): 1.07%
- inhibition (Thailand/16681/1984, Concentration 198.0 uM, Number of replicates 2.0, Standard deviation 0.4757654271085549 %): 6.24%

SMILES: NCC1(c2ccccn2)CCCC1
- inhibition (Thailand/16681/1984, Concentration 49.8 uM, Number of replicates 2.0, Standard deviation 1.2603836344545174 %): -6.98%
- inhibition (Thailand/16681/1984, Concentration 99.5 uM, Number of replicates 2.0, Standard deviation 0.09857237494770278 %): -5.92%

SMILES: COc1cccc2c1OC[C@@H](NC(=O)C1CCN(c3ccc(C=O)cc3)CC1)C2
- inhibition [1]: 0.719%
